Results published in PubChem BioAssay AID686979 (National Center for Advancing Translational Sciences (NCATS), 2013).
Among all 420,000 compounds or so, about 50,000 (12%) were called active. The inconclusive results got no clear call from the source; some entries with a clear call stand among them for comparison. The call rests on the fitted dose curve; in most records, active means well fitted inhibition curve with a large enough effect; inconclusive means small, poorly fitted or top-dose-only effect; inactive means flat fitted curve, though single readings scatter. Potencies of inconclusive entries are left out as doubtful fits.

Test: qHTS for Inhibitors of human tyrosyl-DNA phosphodiesterase 1 (TDP1): qHTS in cells in presence of CPT; further: nearly all actives have a fitted effect of over 55% in size
Conditions: chicken DT40 Tdp1-/-;hTDP1 cells + 20 nM CPT, ATP luminescence, 48 h; activity change, negative = growth inhibition: at 46.2 µM (top of the series) unless noted
How it was run: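 Chicken DT40 Tdp1-/- cells complemented with human TDP1, 400 cells/well, exposed to compounds plus 20 nM camptothecin for at least 48 h at 37 C; viability read as ATP content by CellTiter-Glo luminescence.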
On the % scale 0 is the no-effect control and ±100 the full control effect; potency means the concentration at half of the fitted maximal effect; tags describe the fitted curve by direction and shape.

SMILES | Potency | activity change, negative = growth inhibition
COc1ccc(NC(=O)c2ccco2)cc1NC(=O)COc1ccc(Cl)c(C)c1 | inconclusive [inhibitor, partial curve] | 
Nc1[nH]nc2ncc3cc4ccccc4nc3c12 | active: 18.4 µM | 
CCOC(=O)C1=CCN(S(=O)(=O)c2ccc(Cl)cc2)C1c1cccc(C)c1 (centres undefined) | inconclusive [inhibitor, single point] | 
COc1ccc(C(=S)NCS(=O)(=O)c2ccc(C)cc2)cc1 | inconclusive [inhibitor, single point] | 
Cc1ccc(-c2cc(C(=O)N(Cc3ccc(C(C)(C)C)cc3)Cc3ccco3)no2)cc1 | active: 18.4 µM | 
CCC(=O)Nc1ccc2oc(-c3cccnc3)nc2c1 | inactive | 
CCOc1cc(NC(=O)c2ccccn2)c(OCC)cc1NC(=O)c1ccc(Cl)cc1 | active: 1.46 µM | 
CCCCc1ccc(S(=O)(=O)N/N=C(/C)c2ccncc2)cc1 | active: 16.4 µM | 
COc1ccc(C(C)=O)cc1CC(=O)NC1CCCCCC1 | inactive | 
Cc1ccnc(Nc2nc(-c3c(C)nc4sccn34)cs2)c1 | inconclusive [inhibitor, single point] | 
COc1ccc2[nH]c3c(c2c1)CCN1C(=O)C(CC(=O)NCCN2CCOCC2)C[C@H](C(=O)N2CCCCC2)[C@@]31CCc1ccccc1 (some centres undefined) | inconclusive [inhibitor, single point] | 
O=C(c1ccc2c(=O)n(C3CCCC3)c(=S)[nH]c2c1)N1CCc2ccccc21 | active: 11.6 µM | 
COc1ccc(-n2cnc3cc(NC(=O)c4ccco4)ccc32)cc1 | inconclusive [inhibitor, single point] | 
CCOC(=O)c1ccc(N2C(=O)CC(N3CCC(C(=O)OCC)CC3)C2=O)cc1 (centres undefined) | inconclusive [inhibitor, single point] | 
CCc1cccc(C)c1NC(=O)CCn1c(=O)c2cccn2c2ccccc21 | inconclusive [inhibitor, single point] | 
COc1ccc(CSCC(=O)N/N=C/c2ccc(OCC(=O)NCc3ccco3)cc2)cc1 | inconclusive [inhibitor, single point] | 
CCOC(=O)C1CCCN(c2nc3ccccc3nc2C(C#N)C(=O)OCCOC)C1 (centres undefined) | inconclusive [inhibitor, single point] | 
O=C(CSc1nnc(-c2ccc(Br)cc2)n1C1CCCCC1)N1CCCC1 | inconclusive [inhibitor, single point] | 
CC1CC(C)CN(CCCn2c(=S)[nH]c3ccccc3c2=O)C1 (centres undefined) | inconclusive [inhibitor, single point] | 
CCOC(=O)c1ccc(S(=O)(=O)N2CCC(C(=O)NCc3ccccc3OC)CC2)cc1 | inconclusive [inhibitor, full curve, poor fit] | 
COC(=O)c1ccccc1NC(=S)NC(=O)c1ccccc1C | active: 23.1 µM | 
Cc1cc(C)n(-c2ccc(C(=O)N3CCN(S(=O)(=O)c4ccc(OC(F)(F)F)cc4)CC3)cc2)n1 | inconclusive [inhibitor, single point] | 
COc1ccc(C2/C=C\CN(C(=O)C3CCCCC3)CC(=O)N2Cc2ccc(F)cc2)cc1 (centres undefined) | inconclusive [inhibitor, single point] | 

SMILES | Potency | activity change, negative = growth inhibition
CN(C)C(=O)c1ccc(-c2cncnc2NCCc2cnc[nH]2)cc1 | inconclusive [inhibitor, single point] | 
O=C(c1ccccc1F)N1CCN(c2ccc([N+](=O)[O-])c3ncccc23)CC1 | active: 14.6 µM | 
CC(C#Cc1c([C@@H](C)Oc2ccccc2)nnn1Cc1ccccc1)Oc1ccccc1 (some centres undefined) | inconclusive [inhibitor, partial curve] | 
CC(c1ccccc1)N1C(=O)CC(Sc2ncccc2C(=O)O)C1=O (centres undefined) | inactive | 
CCCCOc1ccc(/C=C/C(=O)N(CC)CC(=O)Nc2ccc3c(c2)OCCO3)cc1OC | inconclusive [inhibitor, single point] | 
CCOc1ccc(C(=O)Nc2c(C(=O)N3CCN(c4ccccc4F)CC3)oc3ccccc23)cc1 | inconclusive [inhibitor, single point] | 
C[C@H]1CN([C@@H](C)CO)C(=O)CCCn2nncc2CO[C@H]1CN(C)C(=O)c1ccncc1 | inactive | 
CCCc1c(-c2ccc(Cl)cc2)ncn1Cc1cccc(-c2ccccc2)c1 | active: 5.17 µM | 
COc1ccc(Br)cc1/C=N/NS(=O)(=O)c1ccccc1 | active: 18.4 µM | 
Cc1cccc(N(Cc2ccccc2)C(=O)CCl)c1 | active: 2.31 µM | 
CC(C)C[C@@H](CN(C)N=O)N(C[C@H](Cc1ccccc1)N(CCc1ccccc1)N=O)N=O | inconclusive [inhibitor, single point] | 
CC(C)(C)NS(=O)(=O)c1ccc(NC(=O)CS(=O)(=O)Cc2ccccc2)cc1 | inconclusive [inhibitor, single point] | 
CCOC(=O)c1cc2c(c(-c3cccc(C#Cc4ccc(OC)c(OC)c4)c3)n1)[C@@H](CCO)N(S(=O)C(C)(C)C)C2 (some centres undefined) | inconclusive [inhibitor, single point] | 
COc1cccc(C(=O)Nc2nnc(-c3ccc(Cl)cc3)o2)c1 | active: 10.3 µM | 
Cc1ccc([N+](=O)[O-])cc1S(=O)(=O)N1CCn2cccc2C1c1ccccc1 (centres undefined) | active: 20.6 µM | 
CCOc1ccc(-n2nc(CO)c(C(=O)NCc3cccs3)n2)cc1 | inconclusive [inhibitor, single point] | 
CN(C)c1ccc(C=NNc2ccccn2)c(Cl)c1 | inconclusive [inhibitor, single point] | 
O=C(Nc1ccc(NC(=O)c2ccc(Cl)cc2Cl)cc1)c1ccc2c(c1)OCO2 | inactive | 
CC(=O)c1ccccc1NC(=O)COC(=O)/C=C/c1ccc(C)o1 |  | inconclusive: -31% [inhibitor]
COc1ccc(N2CCN(Cc3cccn3-c3nnc(N4CCN(C5CCCCC5)CC4)s3)CC2)cc1 | active: 20.6 µM | 
Cc1nn(C)c(C(=O)N/N=C/c2cccnc2)c1Br | inactive | 
O=C(CSc1ncn[nH]1)N1N=C2/C(=C/c3ccco3)CCCC2C1c1ccco1 (centres undefined) | inconclusive [inhibitor, partial curve] | 
O=C(COC(=O)c1cc(=O)c2ccccc2o1)NC1CCCC1 | inactive | 

SMILES | Potency | activity change, negative = growth inhibition
CCCCCCCCN1C(=O)[C@H](CC(=O)NCC23CC4CC(CC(C4)C2)C3)C[C@@]2(C(=O)OC)CCCCC=C12 | inconclusive [inhibitor, single point] | 
CC1=C(C(=O)N2CCCCCC2)CC(CC(=O)NCCCN(C)C)C(=O)N1Cc1ccc(C(C)(C)C)cc1 (centres undefined) | active: 8.33 µM | 
CCOc1nc(C)ccc1-c1noc(-c2cccnc2)n1 | inactive | 
CC1(C)CC(=O)C=C(OC(=O)c2ccc(Cl)cc2)C1 | inactive | 
COc1cccc(-c2nc(N3CCCCC3C)c3ccccc3n2)c1O (centres undefined) | inconclusive [inhibitor, single point] | 
COC(=O)c1ccc(CSc2ccccc2C)o1 | inconclusive [inhibitor, partial curve, poor fit] | 
CC1CCN(c2cc(N3CCN(C(=O)c4ccc(F)c(F)c4)CC3)c([N+](=O)[O-])cc2F)CC1 | inconclusive [inhibitor, single point] | 
O=C(CCn1c2c(c3ccccc31)CCCC2)NNC(=O)c1cccc([N+](=O)[O-])c1 | inconclusive [inhibitor, single point] | 
O=c1[nH]cc(NCCc2ccccc2)c(=O)[nH]1 | inactive | 
COc1ccc(Cl)cc1/C=C/c1ccc2cccc(O)c2n1 | active: 20.6 µM | 
O=C1[C@H]2[C@@H](c3ccc(F)cc3)N3C(=O)N(c4ccc(Br)cc4)C(=O)[C@@]3(Cc3ccc(Cl)cc3)[C@H]2C(=O)N1C1CCCCC1 | inconclusive [inhibitor, single point] | 
CC(=O)c1ccc(N(C(=O)CNC(=O)c2ccco2)C(C(=O)NC2CCCC2)c2ccncc2)cc1 (centres undefined) | inactive | 
COc1ccc(NC(=O)CCc2nnc3n(Cc4ccccc4Cl)c(=O)c4ccccc4n23)cc1 | active: 3.26 µM | 
O=C(NCc1cccs1)C1CCN(S(=O)(=O)c2cccc3nsnc23)CC1 | inactive | 
CCOc1ccccc1CNC(=O)Cn1cc2c(n1)-c1c(oc(C(=O)N3CCCC3)c1C)CC2 | active: 13 µM | 
COc1ccc(C(CNC(=O)COc2ccc(-c3ccccc3)cc2)N2CCOCC2)cc1 (centres undefined) | inconclusive [inhibitor, single point] | 
Cc1ccc(S(=O)(=O)CCSC(=N)N)cc1 | inconclusive [inhibitor, single point] | 
Cc1cccnc1NC(=O)NC(=O)c1ccc(C(C)(C)C)s1 | inconclusive [inhibitor, single point] | 
COc1ccc(/C=N/NC(=O)c2cnccn2)c(OC)c1OC | inactive | 
COc1ccccc1Nc1nnc(SCc2cc(=O)n3ccsc3n2)s1 | inconclusive [inhibitor, single point] | 
c1ccc(C[C@H]2CN=C(Nc3ccccc3)N2CCC2CCCC2)cc1 | inconclusive [inhibitor, single point] | 
O=C(CSc1nnc(-c2c[nH]c3ccccc23)o1)N1c2ccccc2CCc2ccccc21 | active: 16.4 µM | 
COc1ccc(CN(Cc2cccnc2)S(=O)(=O)c2ccc(-n3cnnn3)c(OC)c2)cc1 | inconclusive [inhibitor, single point] | 
